# From the supplement of paper PMC8728848
# The other results are listed elsewhere or left out.
# B1: GS13686A-pdi-553-26-553 (Parabacteroides distasonis) (protein)
# chain: NENPDKPTDDVNYNMNEPRLASTLRGGLIIEGNVEQRLKPLQIDFYSQMTVDGGGWGTKNYIQDDEWNNLVWEEYLKQIASINIVIRSLTEKDKDAYANTIAFARIWRVYVHTLAADKFGPMPFPAYEIVEANPPYKSLKDIYDEYFRELDAAINGFNDSAQPIFSDAGIDLIYKNDVSKWKRFANSLRLRLAVRLTEVDQEKCIAEANAAISSPAGLISDKADNAYMPPKADGSWGQDYNYTMFQITWSGPICMSKSVEKLVTNIGGVAWPQGVVNQTSGVAVSSVHPEKVDPRAPKIFQPGIENGDWKGLVYGPKAEEANTGIYQSKQCAELGFIIKDGYPYKSRPYDLFLSEEVHFLKAELYARGFIAGDAKSEYEAGVRASFATWGVTSEVDDYLTSTEKNEAGTSARYDDQQGAGNTALEKIITQKYIAGIPDLAQEGWNDKRRLNLPRLDVAVYRDQAVYNNNDKDILKSANFIKRMRYPTKESLINATEYEKGKSMLGGKGDIVSTPLWWDKNSNYCTSSK
# Columns and labels:
# Assay in all cases: glycan array binding signal (z-score within array); higher = stronger binding
# Details in all cases: glycan notation: IUPAC condensed, linker removed
# [1] = molecular target: Gal6S(b1-4)Glc6S
# Summary of the method: (§1)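 The Consortium for Functional Glycomics database supplied 3228 glycan arrays, of which those lacking an available protein sequence were dropped. The binding signal, a within-array Z-score, was averaged across arrays of the same protein sequence and across linkers. Negative scores can be read as non-binding.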
# [2] = molecular target: Gal6S(b1-4)GlcNAc
# Summary of the method: as §1
# [3] = molecular target: Gal6S(b1-4)GlcNAc6S
# Summary of the method: as §1
# [4] = molecular target: GalNAc(a1-3)Gal
# Summary of the method: as §1
# [5] = molecular target: GalNAc(a1-3)GalNAc
# Summary of the method: as §1
# [6] = molecular target: GalNAc(a1-3)GalNAc(b1-3)Gal(a1-4)Gal(b1-4)Glc
# Summary of the method: as §1
# [7] = molecular target: GalNAc(a1-3)GalNAc(b1-3)Gal(a1-4)Gal(b1-4)GlcNAc
# Summary of the method: as §1
# [8] = molecular target: GalNAc(b1-3)Gal
# Summary of the method: as §1
# [9] = molecular target: GalNAc(b1-3)Gal(a1-4)Gal(b1-4)GlcNAc
# Summary of the method: as §1
# [10] = molecular target: GalNAc(b1-3)Gal(a1-4)Gal(b1-4)GlcNAc(b1-3)Gal(b1-4)Glc
# Summary of the method: as §1
# [11] = molecular target: GalNAc(b1-3)Gal(a1-6)Gal(b1-4)Glc
# Summary of the method: as §1
# [12] = molecular target: GalNAc(b1-3)GalNAc
# Summary of the method: as §1
# [13] = molecular target: GalNAc(b1-3)GlcNAc
# Summary of the method: as §1
# [14] = molecular target: GalNAc(b1-4)Gal(b1-4)Glc
# Summary of the method: as §1
# [15] = molecular target: GalNAc(b1-4)GlcNAc
# Summary of the method: as §1
# [16] = molecular target: GalNAc(b1-4)GlcNAc(b1-2)Man
# Summary of the method: as §1
# [17] = molecular target: GalNAc(b1-4)GlcNAc(b1-2)Man(a1-3)[GalNAc(b1-4)GlcNAc(b1-2)Man(a1-6)]Man(b1-4)GlcNAc(b1-4)GlcNAc
# Summary of the method: as §1
# [18] = molecular target: GalNAc(b1-4)GlcNAc(b1-3)GalNAc(b1-4)GlcNAc
# Summary of the method: as §1
# [19] = molecular target: GalNAc(b1-4)GlcNAc6S
# Summary of the method: as §1
# [20] = molecular target: GalNAc(b1-6)GalNAc
# Summary of the method: as §1
# [21] = molecular target: GalNAc3S(b1-4)GlcNAc
# Summary of the method: as §1
# [22] = molecular target: GalNAc3S(b1-4)GlcNAc3S
# Summary of the method: as §1
# [23] = molecular target: GalNAc3S(b1-4)[Fuc(a1-3)]GlcNAc
# Summary of the method: as §1
# [24] = molecular target: GalNAc4S6S(b1-4)GlcNAc
# Summary of the method: as §1
# [25] = molecular target: GalNAc6S(b1-4)GlcNAc
# Summary of the method: as §1
# [26] = molecular target: Glc(a1-4)Glc
# Summary of the method: as §1
# [27] = molecular target: Glc(a1-4)Glc(a1-4)Glc(a1-4)Glc
# Summary of the method: as §1
# [28] = molecular target: Glc(a1-6)Glc(a1-6)Glc
# Summary of the method: as §1
# [29] = molecular target: Glc(a1-6)Glc(a1-6)Glc(a1-6)Glc
# Summary of the method: as §1
# [30] = molecular target: Glc(b1-4)Glc
# Summary of the method: as §1
# [31] = molecular target: Glc(b1-6)Glc
# Summary of the method: as §1
# [32] = molecular target: GlcA(b1-3)Gal
# Summary of the method: as §1
# [33] = molecular target: GlcA(b1-3)GlcNAc
# Summary of the method: as §1
# [34] = molecular target: GlcA(b1-6)Gal
# Summary of the method: as §1
# [35] = molecular target: GlcA3S(b1-3)Gal(b1-4)GlcNAc(b1-2)Man
# Summary of the method: as §1
# [36] = molecular target: GlcA3S(b1-3)Gal(b1-4)GlcNAc(b1-3)Gal(b1-4)Glc
# Summary of the method: as §1
# [37] = molecular target: GlcNAc(a1-3)Gal(b1-4)GlcNAc
# Summary of the method: as §1
# [38] = molecular target: GlcNAc(a1-4)Gal(b1-3)GlcNAc
# Summary of the method: as §1
# [39] = molecular target: GlcNAc(a1-4)Gal(b1-4)GalNAc
# Summary of the method: as §1
# [40] = molecular target: GlcNAc(a1-4)Gal(b1-4)GlcNAc
# Summary of the method: as §1
# [41] = molecular target: GlcNAc(a1-4)Gal(b1-4)GlcNAc(b1-3)Gal(b1-4)Glc
# Summary of the method: as §1
# [42] = molecular target: GlcNAc(a1-4)Gal(b1-4)GlcNAc(b1-3)Gal(b1-4)GlcNAc
# Summary of the method: as §1
# [43] = molecular target: GlcNAc(a1-4)Gal(b1-4)GlcNAc(b1-3)Gal(b1-4)GlcNAc(b1-3)Gal(b1-4)GlcNAc
# Summary of the method: as §1
# [44] = molecular target: GlcNAc(a1-4)Gal(b1-4)GlcNAc(b1-3)Gal(b1-4)[Fuc(a1-3)]GlcNAc(b1-3)Gal(b1-4)[Fuc(a1-3)]GlcNAc
# Summary of the method: as §1
# [45] = molecular target: GlcNAc(a1-6)Gal(b1-4)GlcNAc
# Summary of the method: as §1
binder,measurement,setting,value
B1,glycan array binding signal (z-score),[1],0.291
same,glycan array binding signal (z-score),[2],0.374
same,glycan array binding signal (z-score),[3],-0.176
same,glycan array binding signal (z-score),[4],-0.145
same,glycan array binding signal (z-score),[5],-0.259
same,glycan array binding signal (z-score),[6],-0.428
same,glycan array binding signal (z-score),[7],-0.263
same,glycan array binding signal (z-score),[8],-0.266
same,glycan array binding signal (z-score),[9],-0.089
same,glycan array binding signal (z-score),[10],-0.315
same,glycan array binding signal (z-score),[11],0.035
same,glycan array binding signal (z-score),[12],-0.33
same,glycan array binding signal (z-score),[13],-0.265
same,glycan array binding signal (z-score),[14],0.208
same,glycan array binding signal (z-score),[15],-0.128
same,glycan array binding signal (z-score),[16],-0.267
same,glycan array binding signal (z-score),[17],-0.173
same,glycan array binding signal (z-score),[18],0.492
same,glycan array binding signal (z-score),[19],0.797
same,glycan array binding signal (z-score),[20],-0.233
same,glycan array binding signal (z-score),[21],-0.263
same,glycan array binding signal (z-score),[22],-0.096
same,glycan array binding signal (z-score),[23],-0.332
same,glycan array binding signal (z-score),[24],-0.423
same,glycan array binding signal (z-score),[25],-0.366
same,glycan array binding signal (z-score),[26],-0.119
same,glycan array binding signal (z-score),[27],-0.292
same,glycan array binding signal (z-score),[28],-0.242
same,glycan array binding signal (z-score),[29],-0.331
same,glycan array binding signal (z-score),[30],0.169
same,glycan array binding signal (z-score),[31],-0.053
same,glycan array binding signal (z-score),[32],-0.112
same,glycan array binding signal (z-score),[33],-0.083
same,glycan array binding signal (z-score),[34],-0.199
same,glycan array binding signal (z-score),[35],0.201
same,glycan array binding signal (z-score),[36],-0.392
same,glycan array binding signal (z-score),[37],-0.48
same,glycan array binding signal (z-score),[38],-0.255
same,glycan array binding signal (z-score),[39],-0.313
same,glycan array binding signal (z-score),[40],-0.164
same,glycan array binding signal (z-score),[41],-0.345
same,glycan array binding signal (z-score),[42],-0.312
same,glycan array binding signal (z-score),[43],-0.146
same,glycan array binding signal (z-score),[44],0.871
same,glycan array binding signal (z-score),[45],-0.427
